Assay results: the supplement of paper PMC11417369
± gives the standard deviation of the averaged measurements. The list shows a part of the results.

These sequences were tested on PfAP2-LT AP2 domain (GST-tagged) (assay: gcPBM binding intensity (ln(normalized median fluorescence intensity)); higher = stronger DNA binding).
Procedure, shortened: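 DNA-binding domains from P. falciparum, fused to GST and produced in E. coli, were put on an Agilent 4 × 180k double-stranded probe array for 1 h in 1× PBS holding 1% milk, 0.2 mg/ml BSA, 0.5% salmon testes DNA and 0.03% Triton X-100. Probes were primer-extended, 36 bp long and drawn from intergenic genomic regions, with negative controls included. After Alexa488 anti-GST antibody detection and a 488 nm scan, binding intensity was set as the highest Masliner-normalised natural-log median intensity across replicate spots of either probe orientation.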

Sequence | gcPBM binding intensity (ln)
ATATTAAAATTAAACGCATGCATATATTATAAAAGA [TGCATGCA_site231] | 8.96 ± 0.38
CTAATTAATGGGTACATACACACATATATACATACA [CACACA_site743] | 9.1 ± 0.43
TTTTTATCAAATAAATGTACACATATTAAATGAAAT [XGTACX_site555] | 8.52 ± 0.4
TTCTGTATAACACAAATTTTTTTTTATTCACTCTGT [TGCATGCA_negctrl_site410] | 8.72 ± 0.57
AATAATATAACAGAACAAAACTAAATATACACATAT [TGCATGCA_negctrl_site31] | 9.02 ± 0.39
TATTTCATAATAAATTGTACGCGTAGAAAACCATGA [XGTACX_site7506] | 9.25 ± 0.44
AAAAAAAAAAAAAACACACACACACGCATACAAAAT [CACACA_site6794] | 10.2 ± 0.13
TTATATCTTATAAAATGTACATAAAATATATAATAT [XGTACX_site7647] | 8.51 ± 0.38
ATTAATTATATAATATGTACATATTACAAATATATA [XGTACX_site1478] | 8.62 ± 0.42
ATATTTTTCTTAAGTACACACTAAATAGAAACTAAA [CACACA_site4191] | 8.53 ± 0.48
TTAATGTTATATGTGTGTACATATAAGTTTAGTAAA [XGTACX_site4651] | 8.94 ± 0.34
TATGTATATTTTAATTGTACGTGTATGGTTGTAAAT [XGTACX_site8738] | 8.81 ± 0.39
GAGAAAAATAAATACACACACATAAATAAATACATA [CACACA_site5102] | 9.74 ± 0.42
CACTAATAGTGGATTACACACATATATCTGTATTTA [CACACA_site5403] | 8.98 ± 0.35
TTTTTTTTTTCATTAACACACATAAATATATATATA [CACACA_site5759] | 8.56 ± 0.53
TGATTAATAATTTTCTTCATACATTAAACATCTTTT [TGCATGCA_negctrl_site342] | 8.33 ± 0.52
TTTGTAAGAAATAAATGTACAAAAATTAATTTTTAT [XGTACX_site8983] | 8.39 ± 0.42
TTTTTTTTTTTTTTCTGTACAAATTAAATCTACATA [XGTACX_site8285] | 8.43 ± 0.25
GACATAAAATTCAAAGTGCATAAATAAAATAAACCC | 9.13 ± 0.38
TATTTTAATGAATTCACACATATAATTTATTTTATA [CACACA_site4538] | 8.52 ± 0.52
GAAATTAAATGACATACACACTATATTATAGATTTT [CACACA_site7468] | 8.82 ± 0.4
ATATTTAAAAAATGATGTACAAAAATGTAGTCACAC [XGTACX_site6208] | 8.8 ± 0.36
ATATAAAACTAATTTCTTTTTCTCCTTTTATTTTGT [CACACA_negctrl_site1251] | 8.59 ± 0.49
ATAGTATCTGGTAGCTGTACGAGTCGTAGAGTGTAA [XGTACX_site4936] | 9.04 ± 0.43
